Among the data in publication PMC12136788 are binding signal values, retold here.

The other results are listed elsewhere or left out.

Sequences and labels used below:
B1: chr17:82078764:82078865:-|3pUTR|ENSG00000169710|msi1_unk|total|mutant (ssRNA)
RNA: GGGAGUUCUACAGUCCGACGAUCCCGUGGGGUCUGCGCUUGGUCUUUCUGUGCUUGGAUUUGCAUAUUUAUUGCAUUGCUGGCCGAGACCCCCAGGCCUGUCCACCCUGCCAAGACUCCUCAGGCAGCGUGUGGGUCCCGCACCAACAGAGGAUUGAGCAUCA
B2: ENSG00000198589:be:win_5901|CDS|ENSG00000198589|bound_else_gene|NA|bound_elsewhere_windowed (ssRNA)
RNA: GGGAGUUCUACAGUCCGACGAUCCUGGGGAAAUUCUGCAGUGAGUCGUCCUCUUGAGUUCUGGCGCCUUGACUACUGGGAAGAUGACUUGCGGCGCCGGCGACGAUUUGUGCGUAACCCUCUAGGAUCGACACAUCCUGAAGCCAACAGAGGAUUGAGCAUCA
B3: chr2:205796339:205796442:+|3pUTR|ENSG00000118257|msi1|total|mutant (ssRNA)
RNA: GGGAGUUCUACAGUCCGACGAUCAAGUCCGCAAGUACUGUGGACAAGAAUGCUUAACCAUGCUGCUUCAGCCUUGAGAGACCCCGGUUCUUACACAUAUGCACACACGCAUACACACAUGCACGCACACACACAUACACACAUCAACAGAGGAUUGAGCAUCA
B4: chr8:42175503:42175666:-|3pUTR|ENSG00000104368|msi1|total|mutant (ssRNA)
RNA: GGGAGUUCUACAGUCCGACGAUCAUGAAAGCAUGUCUCAACCGUAAAAGAUAACAAGAUCUUUCAGGAAAGACGGAUUGCAUCCGAAACCGACAGUAUAUUUACCGUCACAAGAGCCCAGCAGGGCCUCAAAGUUGGGGCAGGCAACAGAGGAUUGAGCAUCA
B5: chr20:3963869:3963970:-|CDS|ENSG00000101236|unk|FALSE|bound_elsewhere (ssRNA)
RNA: GGGAGUUCUACAGUCCGACGAUCAAUCUGCCUCUCAACAUAUAUAUUGUGGUUUUUGGUACUGCUAUAUUUGUCUUCAUCCUUAGUUUACUCUUCUGUUGCUACUUGAUUAGGUAACCAAUUUUCAUUCUAUGUUACUUCAAACAACAGAGGAUUGAGCAUCA
B6: chr1:150648406:150648517:-|CDS|ENSG00000143457|unk|total|mutant (ssRNA)
RNA: GGGAGUUCUACAGUCCGACGAUCUCAGCGUAUGGACAAGCGAACACCCGCACUCCUGGUGCCCGCCCACUCCUCUGAUGUGCCCGAGAAUGUCUUCUCCUCUCUGACAGAUGACAAGUAUGAUGUGGCAAUGAAUCGAGCCAACAACAGAGGAUUGAGCAUCA
B7: chr3:15255350:15255451:-|3pUTR|ENSG00000131370|msi1|FALSE|unique (ssRNA)
RNA: GGGAGUUCUACAGUCCGACGAUCUGGGGUGGGAAAGGUGAAUGCCAGUGGGGAUGCGGGGGGAUGAGGGUAGGAGGGACUUAUAGAAGGGGAUUUGUGGCUGUGGGGGAGAAGGUUCUACAGCAUAAGCCUUAUCCUGCCAGCCAACAGAGGAUUGAGCAUCA
B8: chr15:42943230:42943331:-|3pUTR|ENSG00000159459|msi1|FALSE|unique (ssRNA)
RNA: GGGAGUUCUACAGUCCGACGAUCAUUAUGCUUAUGAAGUUUACUUACAAACAAGCAACUGAGUCACUUUAUUUUCUUUAGUGUAGUAUGUGAAGGCACUGGUUCAACAGGAUGGCUCCAGAACUGUGUUUUUCUAAUGUUUGGCAACAGAGGAUUGAGCAUCA
B9: chr20:31664451:31666086:-|three_prime_utr|ENSG00000171552|control|control|control (ssRNA)
RNA: GGGAGUUCUACAGUCCGACGAUCAUGCAGCCCAUGCCCACCUGCCCAUCACAGGGUUGGGCCCAGAUCUGGUCCCUUGCAGCUAGUUUUCUAGAAUUUAUCACACUUCUGUGAGACCCCCACACCUCAGUUCCCUUGGCCUCACAACAGAGGAUUGAGCAUCA
B10: chr10:17237356:17237519:+|3pUTR|ENSG00000026025|msi1_unk|total|mutant (ssRNA)
RNA: GGGAGUUCUACAGUCCGACGAUCAGACCGAUUUGGAACCGGAAUAAGCUCCCGUUCUUAACAACCGACACUCCUACAAGAUUCCGAAAAAAGUUUACAACAUAAUCCCGUUUACAGAAAAAUCUUGUGCCCGAAUACUUUUUACAACAGAGGAUUGAGCAUCA
B11: chr4:25747873:25747886:-|3pUTR|ENSG00000091490|msi1_unk|total|mutant (ssRNA)
RNA: GGGAGUUCUACAGUCCGACGAUCCCGCAGUUAUAAGGCACCUUGAAAUAAAUUGUUUGUGCCUGGAAAUGCAGGGAGGGCAACCGCUUUGUAAAUUGGUUUACAUUUUUCUCCUUGAAUUUUUCCCGGGUCCCCGUGCUUCCGCAACAGAGGAUUGAGCAUCA
B12: ENSG00000165672:stop:overlap|stop_codon|ENSG00000165672|stop_codon|NA|stop_codon (ssRNA)
RNA: GGGAGUUCUACAGUCCGACGAUCCUCCUACGAUCAAGCCAAGUCCAGCUGCUUCCAAAGAGUACUUUCAGAAGGUAAAUCAGUAGAUCACCCAUGUGUAUCUGCACCUUCUCAACUGAGAGAAGAACCACAGUUGAAACCUGCCAACAGAGGAUUGAGCAUCA
B13: chrX:107070192:107070425:-|CDS|ENSG00000089682|control|control|control (ssRNA)
RNA: GGGAGUUCUACAGUCCGACGAUCCGUUCUAGGAGCCAAAUGGCAGAAAAGGACUGGGAGGACCUCAACAUUUAGUAUUCUCUUAGUUUCCUUGCUUUCAGAAACAGUGUUCACAUCUUCAGCCAUGUAUGGCAUUCCCCAUCUCAACAGAGGAUUGAGCAUCA
B14: chr3:185917260:185917361:-|3pUTR|ENSG00000136527|msi1|FALSE|unique (ssRNA)
RNA: GGGAGUUCUACAGUCCGACGAUCUGGCAAAAAGCAACAAUAAACAGUUUGAUUUUUACUUUUCUUUCUAACAUAUCAAUGCUUAGCAGAACUAUUCAGAUUGUCAGUAGUAAAUUUAAAGACAAAUGCCCGUUUUCCUCCAGUCAACAGAGGAUUGAGCAUCA
B15: chr5:113567122:113567223:+|CDS|ENSG00000047188|unk|FALSE|bound_elsewhere (ssRNA)
RNA: GGGAGUUCUACAGUCCGACGAUCAAACUCUGAGAAUUGGGCUGUCGUUAAAGCUGCAUUGGUGGCAGGCAUGUAUCCUAAUUUAGUCCACGUGGACAGAGAGAAUCUAGUGUUGACAGGGCCAAAGGAGAAAAAAGUACGAUUCAACAGAGGAUUGAGCAUCA
B16: chr7:44064065:44064166:+|3pUTR|ENSG00000136279|msi1|total|mutant (ssRNA)
RNA: GGGAGUUCUACAGUCCGACGAUCGCACACCCUUCCCGCCUUUCCAGGACUCAACAAGCUUUAAGGUCAUUCAGAUGCUAAUUCCGACUGCCCUUGUGUCAGAAUACUAAGGUGGGAGGCGGAGCGGAGGUGCCAGUCACUCUGCAACAGAGGAUUGAGCAUCA
B17: chr16:88813726:88813828:-|3pUTR|ENSG00000141012|unk|total|mutant (ssRNA)
RNA: GGGAGUUCUACAGUCCGACGAUCUCCCUGGACGCUAAUUAUGAGGGAGGCGUGCCGCUUCUUAUCAUUGUAACUAUGUUAUUCCGAAAUAAAACGGGAGGCAGGUUUGCCUAAUUCCCAGCUUGAUUUUUCUCUUGGCUGAGUCAACAGAGGAUUGAGCAUCA
B18: chr17:49053040:49053141:+|3pUTR|ENSG00000159217|unk|total|mutant (ssRNA)
RNA: GGGAGUUCUACAGUCCGACGAUCCUCAGCUCCUGUGAGGGGUCUGGUCCGGAGAGAGCCAUUUUUAAGGACAGGGAGUUUUACCGCCCUUUUCUACUUUCCUCCCCUCCUCCCAGUCCUUAUCAAUCUUUUUUCCUUUUUCCUCAACAGAGGAUUGAGCAUCA
B19: chr14:44924370:44924471:-|3pUTR|ENSG00000179454|unk|total|mutant (ssRNA)
RNA: GGGAGUUCUACAGUCCGACGAUCACCUUUUCCGCAUCAGGGUUUUAUUUUAUUUAUGUUUACACACUAAAGUGUCAUUUAACCCGUUAAGAAUUGUAUUCUUUUUUAUUUUAAAGGUUAUUUGUGUGUAUCAUUGUGGUAAUGCAACAGAGGAUUGAGCAUCA
B20: chr7:107202531:107202632:-|3pUTR|ENSG00000164597|msi1|FALSE|unique (ssRNA)
RNA: GGGAGUUCUACAGUCCGACGAUCUAUUCUGAGAACUCAUAAAUAAAAUUCAGCCAAGAUUAAUCAAUCAAUCAAUCAAUCAGUAGACGUCAGAGAUAAGCAACUUUUUUUUCCAUUUAUUUGAAAUAAUAUACAAGAAUAUAGCAACAGAGGAUUGAGCAUCA
B21: chr3:43366700:43366801:-|3pUTR|ENSG00000160746|unk|FALSE|unique (ssRNA)
RNA: GGGAGUUCUACAGUCCGACGAUCACGGUGGCAGGGGGGGUACCCGGGGCAGCAUCGUGGCUCCUGAACCCAGACCCAAUGCUUAGCCAAACGAAGUGGCUCCCAUGUGGCAAGCACCCUUCUCAGUUUCGCAGUGGCUUGGCUCAACAGAGGAUUGAGCAUCA
B22: ENSG00000151012:stop:overlap|stop_codon|ENSG00000151012|stop_codon|NA|stop_codon (ssRNA)
RNA: GGGAGUUCUACAGUCCGACGAUCCUGAAGAAGUAGAAAACCCUGAAAAACCUUUUCUGAGCGGCUACUGGGAAAUUUCUCAUUAGCAGUUCCGAUCUUUGUUGCCCUCUCCUGCUUUGGCUCCAUGAACGGUGGUGUGUUUGCCAACAGAGGAUUGAGCAUCA

This test has as its target MSI1 full-length (mouse, UniProt Q61474 1-362). Briefly: nsRBNS (natural sequence RNA bind-n-seq); RBNS binding buffer (assumed for nsRBNS): 25 mM Tris pH 7.5, 150 mM KCl, 3 mM MgCl2, 0.01% Triton X-100, 500 ug/ml BSA, 20 U/ml SUPERase-In, 4 C; UNK is unkempt and MSI1 is Musashi-1; names of the RNAs are library labels; protein concentration not given here; high values mean tight binding.
UniProt Q61474, sequence (Q61474 whole entry): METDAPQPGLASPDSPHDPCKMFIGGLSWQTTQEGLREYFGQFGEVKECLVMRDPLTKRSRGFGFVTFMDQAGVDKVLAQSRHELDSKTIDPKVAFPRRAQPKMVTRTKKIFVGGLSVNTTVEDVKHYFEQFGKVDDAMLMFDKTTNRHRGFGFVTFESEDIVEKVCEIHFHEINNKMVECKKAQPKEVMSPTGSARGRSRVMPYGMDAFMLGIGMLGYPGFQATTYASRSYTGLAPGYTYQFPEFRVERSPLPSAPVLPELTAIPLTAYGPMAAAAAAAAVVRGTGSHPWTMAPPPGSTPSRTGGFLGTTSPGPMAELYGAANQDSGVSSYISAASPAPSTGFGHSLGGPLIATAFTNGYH
For the molecule B1, the binding signal amounted to 0.438 enrichment R. Next, B2: 0.275 enrichment R; B3: 0.596 enrichment R; B4: 0.44 enrichment R. Next, B5: 1.96 enrichment R; B6: 0.385 enrichment R. In turn, B7 yielded a binding signal of 0.885 enrichment R.

With B8, the binding signal was found to be 5.02 enrichment R. Next, B9: 1.38 enrichment R. For B10 the value was 0.307 enrichment R.

B11 returned a binding signal of 0.378 enrichment R. For B12 the value was 0.684 enrichment R; for B13, 2.62 enrichment R. B14 returned a binding signal of 1.1 enrichment R. Turning to B15, the binding signal came out at 0.82 enrichment R.

Turning to B16, the binding signal is 0.334 enrichment R. For B17 the value was 0.301 enrichment R.

B18 returned a binding signal of 0.698 enrichment R.

B19: the binding signal amounted to 0.653 enrichment R. For B20, the binding signal is 5.92 enrichment R. Next, B21: 0.447 enrichment R; B22: 0.404 enrichment R.
